In publication PMC3620054, “Lsb1 Is a Negative Regulator of Las17 Dependent Actin Polymerization Involved in Endocytosis” (PLoS ONE, 2013) one finds binding data, which are given here for ten molecules.

Sequences of proteins named here, by UniProt entry; tags and fusion partners are left off.
UniProt Q12446: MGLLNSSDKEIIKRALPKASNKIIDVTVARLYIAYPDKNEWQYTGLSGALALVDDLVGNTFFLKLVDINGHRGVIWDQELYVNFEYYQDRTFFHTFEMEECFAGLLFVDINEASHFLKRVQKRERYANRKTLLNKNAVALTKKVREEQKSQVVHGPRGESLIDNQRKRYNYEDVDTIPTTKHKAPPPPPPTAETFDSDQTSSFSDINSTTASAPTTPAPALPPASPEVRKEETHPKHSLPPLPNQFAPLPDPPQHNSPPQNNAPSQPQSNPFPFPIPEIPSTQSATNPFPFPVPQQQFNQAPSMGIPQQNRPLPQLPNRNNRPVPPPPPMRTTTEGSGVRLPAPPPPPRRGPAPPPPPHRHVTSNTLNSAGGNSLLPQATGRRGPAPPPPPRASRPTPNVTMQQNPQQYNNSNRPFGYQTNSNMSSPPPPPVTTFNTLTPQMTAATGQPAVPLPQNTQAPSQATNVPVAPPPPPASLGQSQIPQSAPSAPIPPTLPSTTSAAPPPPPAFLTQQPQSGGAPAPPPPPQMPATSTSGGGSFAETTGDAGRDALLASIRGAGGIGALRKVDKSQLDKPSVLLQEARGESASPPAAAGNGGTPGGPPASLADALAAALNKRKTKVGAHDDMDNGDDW

Where two headings read alike, the source gives them in different places. No constants are given. Whether binding was seen depends on the method and setting. In cells and extracts the contact can be indirect. Some binding calls cover weakened binding; strength is not graded here. Where a sequence is shown, tags or fusion partners need not be part of it.

Test [1] addresses T1, GST-SH3-Lsb2 (S. cerevisiae) (UniProt Q06449).
T1 sequence: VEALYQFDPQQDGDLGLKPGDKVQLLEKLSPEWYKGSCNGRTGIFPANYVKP
Description: pull-down; GST fusions coated on glutathione-Sepharose beads incubated with a total yeast protein extract containing the GFP-tagged protein; fluorescent halo around the beads seen by fluorescence microscopy; only the target purified.

Test [2] has as its target T2, GST-SH3-Lsb1 (S. cerevisiae) (UniProt P53281).
T2 sequence: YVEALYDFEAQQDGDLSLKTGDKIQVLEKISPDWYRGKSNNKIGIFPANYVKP
The description is as above.

Test [3] has as its target T3, GST-Lsb1 (S. cerevisiae) (UniProt P53281).
T3 sequence: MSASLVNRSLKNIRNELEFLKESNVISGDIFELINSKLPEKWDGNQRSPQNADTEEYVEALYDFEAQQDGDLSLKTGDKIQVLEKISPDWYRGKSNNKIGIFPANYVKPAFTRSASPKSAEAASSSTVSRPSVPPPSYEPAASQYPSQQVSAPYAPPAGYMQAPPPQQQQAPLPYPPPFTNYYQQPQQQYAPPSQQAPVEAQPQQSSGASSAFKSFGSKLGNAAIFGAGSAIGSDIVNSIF
The test can be described thus: pull-down; GST-Lsb1 or GST-Lsb2 on glutathione Sepharose beads incubated with total protein extract from Las17-CFP expressing cells, 1 h at 4°C, washed with PBS+500 mM NaCl, Western blot with anti-GFP; only the target purified. A general note: A western blot detects proteins with antibodies after separation by electrophoresis.

Test [4] has as its target T4, GST-Lsb2 (S. cerevisiae) (UniProt Q06449).
T4 sequence: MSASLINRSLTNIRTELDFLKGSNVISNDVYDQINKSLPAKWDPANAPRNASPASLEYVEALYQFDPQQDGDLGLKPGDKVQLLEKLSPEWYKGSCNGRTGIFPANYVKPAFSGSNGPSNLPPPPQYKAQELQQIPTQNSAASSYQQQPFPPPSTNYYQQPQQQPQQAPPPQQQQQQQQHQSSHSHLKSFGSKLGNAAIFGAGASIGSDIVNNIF
The description is as above.

In test [5] the target is T1, GST-SH3-Lsb2 (S. cerevisiae). The test can be described thus: pull-down; GST fusions coated on glutathione-Sepharose beads incubated with a total yeast protein extract containing the GFP-tagged protein; fluorescent halo around the beads seen by fluorescence microscopy; only the target purified. The source holds these as a separate data set.
In test [6] the target is T2, GST-SH3-Lsb1 (S. cerevisiae). The test is described as above. This is another data set of the same source.
The target of test [7] is T5, Lsb2-HA (S. cerevisiae) (UniProt Q06449).
T5 sequence: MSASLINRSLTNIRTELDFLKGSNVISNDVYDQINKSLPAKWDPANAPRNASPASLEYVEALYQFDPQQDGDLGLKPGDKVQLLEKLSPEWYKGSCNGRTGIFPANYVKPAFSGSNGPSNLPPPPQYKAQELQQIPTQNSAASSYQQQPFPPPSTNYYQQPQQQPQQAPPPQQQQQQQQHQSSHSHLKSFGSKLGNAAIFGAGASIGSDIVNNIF
Description: co-IP; Lsb1-HA or Lsb2-HA expressed in Lsb1-GFP or Lsb2-GFP strains; immunoprecipitated using γ-bind Sepharose beads and anti-HA antibodies; Western blot with anti-GFP and anti-HA.

The target in test [8] is T6, Lsb1-HA (S. cerevisiae) (UniProt P53281).
T6 sequence: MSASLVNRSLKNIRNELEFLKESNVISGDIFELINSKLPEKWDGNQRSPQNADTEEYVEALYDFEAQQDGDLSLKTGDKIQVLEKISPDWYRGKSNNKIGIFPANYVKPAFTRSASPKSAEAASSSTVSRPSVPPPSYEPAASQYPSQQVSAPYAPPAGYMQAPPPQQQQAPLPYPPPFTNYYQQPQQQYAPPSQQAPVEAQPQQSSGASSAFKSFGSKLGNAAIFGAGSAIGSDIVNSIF
The test is described as above.

Test [9] has as its target Las17-CFP (S. cerevisiae) (UniProt Q12446). Description: co-IP; extract of Las17-CFP cells expressing Lsb1-HA or Lsb2-HA; γ-bind Sepharose beads with rabbit anti-GFP serum, 2 mg total extract overnight at 4°C; lysis buffer 20 mM Tris pH 7.5, 100 mM NaCl, 5 mM EDTA, 1% Triton-X; Western blot with anti-HA, anti-GFP and anti-Pgk1.

For Las17-GFP (from UniProt Q12446 1-633), the binding result in test [1] and in test [2] was “binds” in each case.

On to Las17-CFP (from UniProt Q12446 1-633), for which the binding entry in test [3] and in [4] was “binds” each time.

B1: Abp1-GFP (protein, UniProt P15891 1-592)
chain: MALEPIDYTTHSREIDAEYLKIVRGSDPDTTWLIISPNAKKEYEPESTGSSFHDFLQLFDETKVQYGLARVSPPGSDVEKIIIIGWCPDSAPLKTRASFAANFAAVANNLFKGYHVQVTARDEDDLDENELLMKISNAAGARYSIQTSSKQQGKASTPPVKKSFTPSKSPAPVSKKEPVKTPSPAPAAKISSRVNDNNDDDDWNEPELKERDFDQAPLKPNQSSYKPIGKIDLQKVIAEEKAKEDPRLVQKPTAAGSKIDPSSDIANLKNESKLKRDSEFNSFLGTTKPPSMTESSLKNDDDKVIKGFRNEKSPAQLWAERKAKQNSGNAETKAEAPKPEVPEDEPEGEPDVKDLKSKFEGLAASEKEEEEMENKFAPPPKKSEPTIISPKPFSKPQEPVKAEEAEQPKTDYKKIGNPLPGMHIEADNEEEPEENDDDWDDDEDEAAQPPLPSRNVASGAPVQKEEPEQEEIAPSLPSRNSIPAPKQEEAPEQAPEEEIEEEAEEAAPQLPSRSSAAPPPPPRRATPEKKPKENPWATAEYDYDAAEDNELTFVENDKIINIEFVDDDWWLGELEKDGSKGLFPSNYVSLGN
For the molecule B1, the binding result in test [5] and in test [6] was “binds” in each case.

B2: Lsb1-GFP (protein, UniProt P53281 1-241)
chain: MSASLVNRSLKNIRNELEFLKESNVISGDIFELINSKLPEKWDGNQRSPQNADTEEYVEALYDFEAQQDGDLSLKTGDKIQVLEKISPDWYRGKSNNKIGIFPANYVKPAFTRSASPKSAEAASSSTVSRPSVPPPSYEPAASQYPSQQVSAPYAPPAGYMQAPPPQQQQAPLPYPPPFTNYYQQPQQQYAPPSQQAPVEAQPQQSSGASSAFKSFGSKLGNAAIFGAGSAIGSDIVNSIF
Consider B2, for which the binding entry in [7] and in [8] was “binds” throughout.

B3: Lsb1-HA (protein, UniProt P53281 1-241)
chain: MSASLVNRSLKNIRNELEFLKESNVISGDIFELINSKLPEKWDGNQRSPQNADTEEYVEALYDFEAQQDGDLSLKTGDKIQVLEKISPDWYRGKSNNKIGIFPANYVKPAFTRSASPKSAEAASSSTVSRPSVPPPSYEPAASQYPSQQVSAPYAPPAGYMQAPPPQQQQAPLPYPPPFTNYYQQPQQQYAPPSQQAPVEAQPQQSSGASSAFKSFGSKLGNAAIFGAGSAIGSDIVNSIF
Regarding B3, in test [9], the binding result is on record as “binds”.

B4: Sla1-GFP (protein, UniProt P32790 1-1244)
chain: MTVFLGIYRAVYAYEPQTPEELAIQEDDLLYLLQKSDIDDWWTVKKRVIGSDSEEPVGLVPSTYIEEAPVLKKVRAIYDYEQVQNADEELTFHENDVFDVFDDKDADWLLVKSTVSNEFGFIPGNYVEPENGSTSKQEQAPAAAEAPAATPAAAPASAAVLPTNFLPPPQHNDRARMMQSKEDQAPDEDEEGPPPAMPARPTATTETTDATAAAVRSRTRLSYSDNDNDDEEDDYYYNSNSNNVGNHEYNTEYHSWNVTEIEGRKKKKAKLSIGNNKINFIPQKGTPHEWSIDKLVSYDNEKKHMFLEFVDPYRSLELHTGNTTTCEEIMNIIGEYKGASRDPGLREVEMASKSKKRGIVQYDFMAESQDELTIKSGDKVYILDDKKSKDWWMCQLVDSGKSGLVPAQFIEPVRDKKHTESTASGIIKSIKKNFTKSPSRSRSRSRSKSNANASWKDDELQNDVVGSAAGKRSRKSSLSSHKKNSSATKDFPNPKKSRLWVDRSGTFKVDAEFIGCAKGKIHLHKANGVKIAVAADKLSNEDLAYVEKITGFSLEKFKANDGSSSRGTDSRDSERERRRRLKEQEEKERDRRLKERELYELKKARELLDEERSRLQEKELPPIKPPRPTSTTSVPNTTSVPPAESSNNNNSSNKYDWFEFFLNCGVDVSNCQRYTINFDREQLTEDMMPDINNSMLRTLGLREGDIVRVMKHLDKKFGRENIASIPTNATGNMFSQPDGSLNVATSPETSLPQQLLPQTTSPAQTAPSTSAETDDAWTVKPASKSESNLLSKKSEFTGSMQDLLDLQPLEPKKAAASTPEPNLKDLEPVKTGGTTVPAAPVSSAPVSSAPAPLDPFKTGGNNILPLSTGFVMMPMITGGDMLPMQRTGGFVVPQTTFGMQSQVTGGILPVQKTGNGLIPISNTGGAMMPQTTFGAAATVLPLQKTGGGLIPIATTGGAQFPQTSFNVQGQQQLPTGSILPVQKTANGLISANTGVSMPTVQRTGGTMIPQTSFGVSQQLTGGAMMTQPQNTGSAMMPQTSFNAVPQITGGAMMPQTSFNALPQVTGGAMMPLQRTGGALNTFNTGGAMIPQTSFSSQAQNTGGFRPQSQFGLTLQKTGGIAPLNQNQFTGGAMNTLSTGGVLQQQQPQTMNTFNTGGVMQELQMMTTFNTGGAMQQPQMMNTFNTDGIMQQPQMMNTFNTGGAMQQPQQQALQNQPTGFGFGNGPQQSRQANIFNATASNPFGF
Take B4: the binding entry in [5] and in test [6] was “no binding” in each case.

B5: Lsb2-GFP (protein, UniProt Q06449 1-215)
chain: MSASLINRSLTNIRTELDFLKGSNVISNDVYDQINKSLPAKWDPANAPRNASPASLEYVEALYQFDPQQDGDLGLKPGDKVQLLEKLSPEWYKGSCNGRTGIFPANYVKPAFSGSNGPSNLPPPPQYKAQELQQIPTQNSAASSYQQQPFPPPSTNYYQQPQQQPQQAPPPQQQQQQQQHQSSHSHLKSFGSKLGNAAIFGAGASIGSDIVNNIF
Take B5: the binding entry in test [7] and in test [8] was “binds” throughout.

B6: Lsb2-HA (protein, UniProt Q06449 1-215)
chain: MSASLINRSLTNIRTELDFLKGSNVISNDVYDQINKSLPAKWDPANAPRNASPASLEYVEALYQFDPQQDGDLGLKPGDKVQLLEKLSPEWYKGSCNGRTGIFPANYVKPAFSGSNGPSNLPPPPQYKAQELQQIPTQNSAASSYQQQPFPPPSTNYYQQPQQQPQQAPPPQQQQQQQQHQSSHSHLKSFGSKLGNAAIFGAGASIGSDIVNNIF
Consider B6, for which the binding entry in [9] was “binds”.

B7: ubiquitinated Lsb2-HA (protein, UniProt Q06449 1-215)
chain: MSASLINRSLTNIRTELDFLKGSNVISNDVYDQINKSLPAKWDPANAPRNASPASLEYVEALYQFDPQQDGDLGLKPGDKVQLLEKLSPEWYKGSCNGRTGIFPANYVKPAFSGSNGPSNLPPPPQYKAQELQQIPTQNSAASSYQQQPFPPPSTNYYQQPQQQPQQAPPPQQQQQQQQHQSSHSHLKSFGSKLGNAAIFGAGASIGSDIVNNIF
modifications: ubiquitinated in vivo (sites not given)
Consider B7, for which the binding entry in test [9] is recorded as “binds”.

B8: phosphoglycerate kinase Pgk1 (protein, UniProt P00560 1-416)
chain: MSLSSKLSVQDLDLKDKRVFIRVDFNVPLDGKKITSNQRIVAALPTIKYVLEHHPRYVVLASHLGRPNGERNEKYSLAPVAKELQSLLGKDVTFLNDCVGPEVEAAVKASAPGSVILLENLRYHIEEEGSRKVDGQKVKASKEDVQKFRHELSSLADVYINDAFGTAHRAHSSMVGFDLPQRAAGFLLEKELKYFGKALENPTRPFLAILGGAKVADKIQLIDNLLDKVDSIIIGGGMAFTFKKVLENTEIGDSIFDKAGAEIVPKLMEKAKAKGVEVVLPVDFIIADAFSADANTKTVTDKEGIPAGWQGLDNGPESRKLFAATVAKAKTIVWNGPPGVFEFEKFAAGTKALLDEVVKSSAAGNTVIIGGGDTATVAKKYGVTDKISHVSTGGGASLELLEGKELPGVAFLSEKK
As for B8, the binding result in test [9] was “no binding”.
